# Test results published in PubChem BioAssay AID2546 (National Center for Advancing Translational Sciences (NCATS), 2010).
# The whole screen tested about 310,000 compounds, of which about 11,000 (3.5%) were called active. The shares of active, inactive and inconclusive entries below differ from those in the screen. Calls follow the shape of the dose curve; as a rule, active = well fitted inhibition curve with a large enough effect; inconclusive = small, poorly fitted or top-dose-only effect, or effect the other way; inactive = flat fitted curve, though single readings scatter. Potencies of inconclusive entries are left out as doubtful fits.
# Test: VP16 counterscreen qHTS for inhibitors of ROR gamma transcriptional activity;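 also: Gal4-VP16 expression switched on by copper sulfate through the metallothionein promoter; nearly all actives have a fitted effect of over 50% in size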
# Details: Drosophila S2 Gal4-VP16 UAS-luciferase, luminescence, 20 h; activity, negative = inhibition: at 53.6 µM (top of the series)
# % is scaled to controls: 0 for no effect and ±100 for the full control effect; potency is read from the fitted curve at half-maximal effect; tags tell the direction and shape of the fitted curve.
Compound,Potency,"activity, negative = inhibition"
COP(=O)(OC)c1nc(-c2cccc3ccccc23)oc1NCc1ccccc1,"inconclusive [inhibitor, single point]",
Cc1cccc(C2(c3cccc(C)c3)CC2C(=O)Nc2ccc([N+](=O)[O-])cc2O)c1 (centres undefined),active: 11.2 µM,
CCN1/C(=C/C=C/c2sc3ccccc3[n+]2CC)Sc2ccccc21,"inconclusive [inhibitor, full curve, poor fit]",
CCCC(=O)N(Cc1cc(=O)[nH]c2ccccc12)c1ccccc1OC,inactive,
COc1ccc(C(=O)O/N=C(\N)Cc2ccc(Cl)c(Cl)c2)cc1OC,active: 6.31 µM,
CC(=O)Nc1ccc(C(=O)/C=C/c2ccc[nH]2)cc1,"inconclusive [activator, partial curve]",
CCCC(O)(c1ccc(Br)cc1)C(CN1CCOCC1)c1ccc(Cl)cc1 (centres undefined),inactive,
Cc1cc2c(ncn2Cc2ccccc2)c(NS(C)(=O)=O)c1C,"inconclusive [inhibitor, single point]",
Oc1ccc(N=Cc2ccc(OCc3ccccc3)cc2)cc1,"inconclusive [inhibitor, single point]",
C[C@H](NC(=O)c1nc[nH]c1C(=O)N[C@@H](Cc1ccccc1)C(=O)OCc1ccccc1)C(=O)OC(C)(C)C,"inconclusive [inhibitor, single point]",
Cc1ccc(Nc2nc3ccccc3nc2Nc2c(C)n(C)n(-c3ccccc3)c2=O)cc1,inactive,
Cn1c(NC(=O)c2ccccc2NC(=O)C(C)(C)C)nc2ccccc21,active: 11.2 µM,
CCOC(=O)N1CCC(n2c(=S)[nH]c3cc(OC)c(OC)cc3c2=O)CC1,active: 11.2 µM,
COc1ccc(NC(=O)c2ccc(Cl)c(S(=O)(=O)N3CCc4ccccc4C3)c2)cn1,"inconclusive [inhibitor, single point]",
O=C(Cn1cnc([N+](=O)[O-])n1)N/N=C/c1ccccc1O,"inconclusive [inhibitor, single point]",
CCCCn1c(SCC(=O)Nc2ccc(OC)cc2)nc2ccc(N3CCOCC3)cc2c1=O,active: 10 µM,
O=C(CCN1CCOCC1)c1ccc(Cl)cc1,"inconclusive [inhibitor, single point]",
Cc1cccnc1NC(=S)Nc1ccc(F)cc1F,"inconclusive [inhibitor, single point]",
O=C(c1cc(-c2ccc(O)cc2)on1)N1CCN(c2ccccc2)CC1,inactive,
COCC(=O)N(CCc1ccccc1)Cc1cc2cc(C)ccc2nc1Cl,inactive,
COc1cc(/C=C(\C#N)C(N)=O)cc(CSc2nc3ccccc3s2)c1O,active: 14.1 µM,
CCOC(=O)C1CCN(c2ncnc3c2oc2ccc(Cl)cc23)CC1,inactive,
COCCn1c(=O)c2c(nc3n2CC(C)CN3CCc2ccccc2)n(C)c1=O (centres undefined),"inconclusive [inhibitor, partial curve, poor fit]",
O=S(=O)(c1ccc2c(c1)OCCO2)N1CCN(c2ncnc3sccc23)CC1,active: 11.2 µM,
CCCCCCCCCCCCCCCCCC(=O)OCC(C)O (centres undefined),inactive,

Compound,Potency,"activity, negative = inhibition"
CC(C)(C)c1ccc(C(=O)NCC(=O)OCC(=O)Nc2ccccc2[N+](=O)[O-])cc1,"inconclusive [inhibitor, partial curve]",
CN1CCN(CCC2Oc3cc([N+](=O)[O-])ccc3NC2=O)CC1 (centres undefined),inactive,
COc1cc(NC(=O)CCCn2c(=S)[nH]c3ccccc3c2=O)cc(OC)c1OC,,inactive: 0.652% [at 10 µM]
O=C(c1ccco1)N1N=C(c2ccc(Br)cc2)CC1(O)C(F)(F)F (centres undefined),"inconclusive [inhibitor, single point]",
COc1ccc(CNc2ncnc3cc(Cl)ccc23)cc1,"inconclusive [inhibitor, single point]",
CC(=O)NCCC(Cc1ccccc1)c1ccco1 (centres undefined),"inconclusive [activator, single point]",
c1ccc(-c2cc(-c3ccncc3)nc3ccc4ccccc4c23)cc1,"inconclusive [inhibitor, single point]",
CSCC[C@H](NC(=O)c1ccc(Cl)c([N+](=O)[O-])c1)c1nc2ccccc2[nH]1,"inconclusive [inhibitor, single point]",
COc1ccc(-c2cc(C(F)(F)F)n3nc(C(=O)N(C)Cc4ccccc4)cc3n2)cc1OC,inactive,
COC(=O)Cn1cnc2c(cnn2-c2ccc(OC)cc2)c1=O,"inconclusive [activator, single point]",
C/C=C(/C)C#N,inactive,
Cc1ccc(OCCNS(=O)(=O)c2ccc(N3CCCC3=O)cc2)cc1,active: 12.6 µM,
COc1cccc(NC(=O)c2cc3ccccc3oc2=O)c1,active: 10 µM,
O=C(NCc1ccc(Cl)cc1)C1CCN(S(=O)(=O)c2cccnc2)CC1,"inconclusive [inhibitor, single point]",
O=C(Nc1nnc(C2CC2)s1)C1Cc2ccccc2CN1C(=O)c1ccco1 (centres undefined),"inconclusive [activator, single point]",
O=C(CNC(=O)C1COc2ccccc2O1)N/N=C\c1ccccc1Cl (centres undefined),inactive,
O=C(CCCN1C(=O)/C(=C\c2cccs2)SC1=S)NNC(=O)c1ccncc1,"inconclusive [inhibitor, partial curve]",
Cc1ccc(-n2nnnc2C(Cl)(Cl)c2nnnn2-c2ccc(C)cc2)cc1,active: 7.08 µM,
CC(C)C(=O)Nc1ccc(-c2nc3cccnc3o2)cc1,"inconclusive [inhibitor, single point]",
O=S(=O)(c1ccc(N2CCCC2)cc1)C(F)(F)F,active: 5.62 µM,
CN(C)C(=O)COc1ncnc2sc(-c3ccccc3)cc12,inactive,
Cc1ccc(C(=O)n2c(=S)nc3ccccn32)cc1,"inconclusive [inhibitor, full curve]",
COc1cccc(C(=O)NC(=S)Nc2ccccc2N2CCCC2)c1,active: 12.6 µM,
COCC1CCN(C(=O)C2CCC(=O)N(CCc3ccc(Cl)cc3)C2)CC1 (centres undefined),"inconclusive [inhibitor, partial curve, poor fit]",
